Laboratory results from article PMC4336329 (PLoS ONE, 2015).
Screen size: about 310,000 compounds; about 14,000 (4.5%) showed an effect of 50% or more. The effect is printed as a negative number. This is one part of the list.

Molecular target: human ether-à-go-go-related gene (hERG) potassium channel (human, UniProt Q12809)
Assay: primary screen, population patch clamp on CHO cells stably expressing hERG
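Further: peak tail current of the secondary pulse compared with the same well before compound.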

human ether-à-go-go-related gene (hERG) potassium channel, sequence (Q12809 whole entry, looked up): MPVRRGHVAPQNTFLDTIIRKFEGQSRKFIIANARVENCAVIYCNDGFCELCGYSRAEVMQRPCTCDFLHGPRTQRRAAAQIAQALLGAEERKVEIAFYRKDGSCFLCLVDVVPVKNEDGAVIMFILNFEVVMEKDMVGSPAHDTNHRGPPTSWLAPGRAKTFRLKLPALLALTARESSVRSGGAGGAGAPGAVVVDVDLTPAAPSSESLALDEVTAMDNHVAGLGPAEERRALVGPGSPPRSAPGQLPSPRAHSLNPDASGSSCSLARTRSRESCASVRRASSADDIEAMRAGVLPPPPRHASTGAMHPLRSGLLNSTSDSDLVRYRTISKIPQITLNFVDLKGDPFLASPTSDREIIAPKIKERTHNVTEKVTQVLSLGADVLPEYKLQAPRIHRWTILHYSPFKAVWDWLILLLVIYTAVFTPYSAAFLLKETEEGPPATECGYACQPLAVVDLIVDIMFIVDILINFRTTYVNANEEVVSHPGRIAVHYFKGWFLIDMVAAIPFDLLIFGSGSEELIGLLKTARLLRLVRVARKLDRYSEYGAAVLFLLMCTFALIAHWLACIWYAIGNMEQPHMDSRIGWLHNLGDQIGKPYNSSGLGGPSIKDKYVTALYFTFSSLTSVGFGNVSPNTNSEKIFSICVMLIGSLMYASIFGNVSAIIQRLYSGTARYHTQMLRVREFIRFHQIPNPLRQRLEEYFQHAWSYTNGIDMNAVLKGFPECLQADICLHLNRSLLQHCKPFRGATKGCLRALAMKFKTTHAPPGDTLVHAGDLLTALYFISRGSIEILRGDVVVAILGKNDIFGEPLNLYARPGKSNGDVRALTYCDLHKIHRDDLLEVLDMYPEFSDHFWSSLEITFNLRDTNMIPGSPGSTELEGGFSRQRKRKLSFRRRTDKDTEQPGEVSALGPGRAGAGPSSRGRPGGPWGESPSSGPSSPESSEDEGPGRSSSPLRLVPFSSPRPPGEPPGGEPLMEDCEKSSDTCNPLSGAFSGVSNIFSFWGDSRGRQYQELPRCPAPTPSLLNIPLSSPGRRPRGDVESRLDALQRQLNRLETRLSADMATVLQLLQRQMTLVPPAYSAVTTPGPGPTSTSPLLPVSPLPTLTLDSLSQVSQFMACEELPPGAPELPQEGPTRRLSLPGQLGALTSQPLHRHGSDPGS

Q: For `O=C(/C=C/c1ccc(Br)cc1)NC(=O)c1ccccc1O`, which “hERG current change (%, negative = inhibition) at 10uM” value is on record?
A: 31.6%

Q: How did the “hERG current change (%, negative = inhibition) at 10uM” value turn out when `CCCCOC(=O)c1ccc(NC(=O)CSc2nnnn2C)cc1` was run?
A: 20%

Q: How did the “hERG current change (%, negative = inhibition) at 10uM” value turn out when `C=CCOc1nc2c(c(=O)n(C)c(=O)n2C)n1Cc1ccc(Cl)cc1` was run?
A: -15.6%

Q: How did the “hERG current change (%, negative = inhibition) at 10uM” value turn out when `Cc1cnc(=O)[nH]c1SCc1ccc(C(F)(F)F)cc1` was run?
A: 7.41%

Q: For `COC(=O)c1cc(C(=O)OCC(=O)NC2CCS(=O)(=O)C2)cc([N+](=O)[O-])c1` (centres unmarked), which “hERG current change (%, negative = inhibition) at 10uM” value is on record?
A: 18.9%

Q: Which “hERG current change (%, negative = inhibition) at 10uM” value does the source give for `CC(=O)Nc1ccc(NC(=O)C23CC4CC(C2)CC(n2cnc(Br)n2)(C4)C3)cc1` here?
A: -63.4%

Q: Which “hERG current change (%, negative = inhibition) at 10uM” value does the source give for `Cc1cc(C)nc(NS(=O)(=O)c2ccc(N/C=C\C(=O)c3cccs3)cc2)n1` here?
A: 13.6%

Q: Which “hERG current change (%, negative = inhibition) at 10uM” value does the source give for `CC(C)C(=O)Nc1ccc2c(c1)nc(CCN1CCN(C)CC1)n2C` here?
A: -3.19%

Q: For `CCn1cc(C2=NC(CC(C)C)CO2)c2ccccc21` (centres unmarked), which “hERG current change (%, negative = inhibition) at 10uM” value is on record?
A: -5.43%

Q: For `Cc1cccn2cc(CNS(=O)(=O)c3cccc(F)c3)nc12`, which “hERG current change (%, negative = inhibition) at 10uM” value is on record?
A: -22.4%

Q: Which “hERG current change (%, negative = inhibition) at 10uM” value does the source give for `CCOC(=O)c1sc2nc(SCC#N)n(CCCN3CCCC3=O)c(=O)c2c1C` here?
A: -62.9%

Q: `N#Cc1ccc(-c2ccc(F)cc2)nc1SCC(=O)Nc1sc2c(c1C#N)CCC2` was tested. Which “hERG current change (%, negative = inhibition) at 10uM” value did it give?
A: 4.57%

Q: `O=C(C1CCCN(S(=O)(=O)c2cccc3cccnc23)C1)N1CCN(c2ccccc2F)CC1` (centres unmarked) was tested. Which “hERG current change (%, negative = inhibition) at 10uM” value did it give?
A: -75.5%

Q: With `CC12CCC(=O)N1C(C(=O)NCCN1C(=O)S/C(=C\c3ccccc3Cl)C1=O)CS2` (centres unmarked) as the compound, how does the “hERG current change (%, negative = inhibition) at 10uM” value read?
A: -22.6%

Q: With `CC(=O)c1c(C)n(C)c2ccc(O)cc12` as the compound, how does the “hERG current change (%, negative = inhibition) at 10uM” value read?
A: 18.8%

Q: For `CC(C)c1ccc(NC(=O)NC2(C(=O)NCc3cccnc3)CCCCC2)cc1`, which “hERG current change (%, negative = inhibition) at 10uM” value is on record?
A: 5.45%

Q: Which “hERG current change (%, negative = inhibition) at 10uM” value does the source give for `CCCNC(=O)C/C(C)=N/NC(=O)C(=O)Nc1ccccn1` here?
A: 29.4%

Q: For `NS(=O)(=O)c1ccc(NNC(=O)c2sccc2Cl)cc1`, which “hERG current change (%, negative = inhibition) at 10uM” value is on record?
A: 5.33%

Q: `CCN(CC)C(C)C(=O)NCC1(c2ccccc2)CCOCC1.Cl` (centres unmarked) was tested. Which “hERG current change (%, negative = inhibition) at 10uM” value did it give?
A: -6.15%

Q: For `O=C1CSC(=S)N1/N=C/c1ccc(O)c(O)c1O`, which “hERG current change (%, negative = inhibition) at 10uM” value is on record?
A: 8.9%

Q: For `Cc1cc(=O)oc2cc(OCC(=O)NCC3CCCO3)ccc12` (centres unmarked), which “hERG current change (%, negative = inhibition) at 10uM” value is on record?
A: -1.81%

Q: `COC(=O)c1ccc2c(c1)NC(=O)C(N1CCCCC1)S2` (centres unmarked) was tested. Which “hERG current change (%, negative = inhibition) at 10uM” value did it give?
A: -19.3%

Q: How did the “hERG current change (%, negative = inhibition) at 10uM” value turn out when `O=[N+]([O-])c1ccc(Cl)c(CN2CCSCC2)c1` was run?
A: -5.97%

Q: Which “hERG current change (%, negative = inhibition) at 10uM” value does the source give for `COc1cc(/C=C2\C(=O)N(C)C(=S)N2C)ccc1O` here?
A: 8.95%

Q: `Clc1ccc(Cn2nnc(-c3ccc(CN4CCOCC4)cc3)n2)cc1` was tested. Which “hERG current change (%, negative = inhibition) at 10uM” value did it give?
A: -21.5%

Q: `CC(C)n1c(SCc2ccccc2F)nc2c1c(=O)n(C)c(=O)n2C` was tested. Which “hERG current change (%, negative = inhibition) at 10uM” value did it give?
A: -14.1%

Q: With `CN(C)S(=O)(=O)c1ccc(C(=O)Nc2cccc(C(=O)O)c2)cc1` as the compound, how does the “hERG current change (%, negative = inhibition) at 10uM” value read?
A: -2.66%

Q: `CCOC(=O)N1CCN(CC(O)COc2ccc(C)c(C)c2)CC1.Cl` (centres unmarked) was tested. Which “hERG current change (%, negative = inhibition) at 10uM” value did it give?
A: 6.64%

Q: `Cc1ccc(CN2CC(C(=O)Nc3ccncc3)CC2=O)cc1` (centres unmarked) was tested. Which “hERG current change (%, negative = inhibition) at 10uM” value did it give?
A: 7.48%

Q: Which “hERG current change (%, negative = inhibition) at 10uM” value does the source give for `CCC(C)(C)n1nnnc1C(c1ccc(O)c(OC)c1)N1CCN(c2nc3ccccc3s2)CC1` (centres unmarked) here?
A: -41.7%

Q: With `CC1CN(C(=O)CS(=O)(=O)Cc2ccc(Cl)cc2)CC(C)O1` (centres unmarked) as the compound, how does the “hERG current change (%, negative = inhibition) at 10uM” value read?
A: 30.2%

Q: `CC1(C)Cc2c(C#N)c(NCC3CCCO3)nc(-c3ccco3)c2CO1` (centres unmarked) was tested. Which “hERG current change (%, negative = inhibition) at 10uM” value did it give?
A: -38.7%

Q: With `CN(C)C(CNC(=O)c1ccc(C(F)(F)F)cc1)c1ccco1` (centres unmarked) as the compound, how does the “hERG current change (%, negative = inhibition) at 10uM” value read?
A: 9.49%

Q: `Cc1cc2c(N=NC(=O)C3CC3c3ccccc3)c(O)[nH]c2cc1Br` (centres unmarked) was tested. Which “hERG current change (%, negative = inhibition) at 10uM” value did it give?
A: 0.687%

Q: With `CCOc1ccc(CCNC(=O)C2CCCN(c3nn4c(=O)cc(C)nc4s3)C2)cc1` (centres unmarked) as the compound, how does the “hERG current change (%, negative = inhibition) at 10uM” value read?
A: -24.2%

Q: With `CCc1cccc(C)c1NC(=S)N(CCN(C)C)Cc1cccs1` as the compound, how does the “hERG current change (%, negative = inhibition) at 10uM” value read?
A: -8.68%

Q: With `Cc1nc(Nc2ccc(S(N)(=O)=O)cc2)sc1-c1ccccc1` as the compound, how does the “hERG current change (%, negative = inhibition) at 10uM” value read?
A: 12.9%

Q: `COc1ccc(NC(=O)CCNC(=O)C2CCN(S(=O)(=O)c3ccc(OC)cc3)CC2)cc1` was tested. Which “hERG current change (%, negative = inhibition) at 10uM” value did it give?
A: 0.671%

Q: `Cc1ccc(/C=C/C2=NN(C)C(=O)CC2)cc1` was tested. Which “hERG current change (%, negative = inhibition) at 10uM” value did it give?
A: 4.37%

Q: How did the “hERG current change (%, negative = inhibition) at 10uM” value turn out when `COc1ccc(/C=N/n2cnc3c([nH]c4ccc(F)cc43)c2=O)cc1CSc1ccccn1` was run?
A: 20.6%

Q: How did the “hERG current change (%, negative = inhibition) at 10uM” value turn out when `O=C(COC(=O)c1cc(-c2cccc3ccccc23)nc2ccccc12)NC1CCS(=O)(=O)C1` (centres unmarked) was run?
A: -19.5%

Q: For `Cc1cc(N)n2nc(C)c(-c3ccccc3)c2n1`, which “hERG current change (%, negative = inhibition) at 10uM” value is on record?
A: -21.9%

Q: `Br.CNCCc1nc(N)n[nH]1` was tested. Which “hERG current change (%, negative = inhibition) at 10uM” value did it give?
A: 11.8%

Q: `CCP(=O)(CC)C(C)(C)CP(=O)(c1ccccc1)c1ccccc1` was tested. Which “hERG current change (%, negative = inhibition) at 10uM” value did it give?
A: -3.41%

Q: For `Cc1cc(NC(=O)CCC(=O)N(Cc2ccco2)C(C(=O)NC2CCCCC2)c2cccs2)no1` (centres unmarked), which “hERG current change (%, negative = inhibition) at 10uM” value is on record?
A: -20.9%

Q: `CC(C)(C)c1cc(C(C)(C)C)cc(S(=O)(=O)CCc2ccccn2)c1` was tested. Which “hERG current change (%, negative = inhibition) at 10uM” value did it give?
A: -24.8%

Q: For `CCOc1ccc(C(C)=O)cc1Cc1c(O)[nH]c(=S)[nH]c1=O`, which “hERG current change (%, negative = inhibition) at 10uM” value is on record?
A: 5.77%

Q: With `O=C(Nc1nccs1)c1cc2cc(Cl)ccc2oc1=O` as the compound, how does the “hERG current change (%, negative = inhibition) at 10uM” value read?
A: 6.82%

Q: `COc1cc(/C=N/NC(=O)C(=O)/C=C2\NC(C)(C)Cc3ccccc32)ccc1O` was tested. Which “hERG current change (%, negative = inhibition) at 10uM” value did it give?
A: -2.55%

Q: For `Cc1ccc(-n2ccc(=O)c(C(=O)Nc3ccc(S(=O)(=O)Nc4nccc(C)n4)cc3)n2)cc1`, which “hERG current change (%, negative = inhibition) at 10uM” value is on record?
A: -9.21%

Q: How did the “hERG current change (%, negative = inhibition) at 10uM” value turn out when `Cc1ccc(C(=O)N2CCC(n3nccc3NC(=O)c3ccccc3C)CC2)cn1` was run?
A: -43.2%

Q: For `COC(=O)c1c(C)[nH]c(C(=O)COc2ccc3ccc(=O)oc3c2)c1C`, which “hERG current change (%, negative = inhibition) at 10uM” value is on record?
A: 11.5%

Q: With `CCOc1ccc(NC(=O)Nc2cc(C)ccc2OC)cc1` as the compound, how does the “hERG current change (%, negative = inhibition) at 10uM” value read?
A: 3.71%

Q: With `O=C(CSc1nnnn1-c1cccc2ccccc12)Nc1ccc(C(=O)O)cc1` as the compound, how does the “hERG current change (%, negative = inhibition) at 10uM” value read?
A: 10.5%

Q: With `Cc1ccc(OCc2nnc(SC3CCc4ccccc4C3=O)n2C)cc1` (centres unmarked) as the compound, how does the “hERG current change (%, negative = inhibition) at 10uM” value read?
A: -36.8%

Q: For `CCOC(=O)c1cc2c(ccc3ccccc32)oc1=O`, which “hERG current change (%, negative = inhibition) at 10uM” value is on record?
A: -32%
